# The other results are listed elsewhere or left out.
# How the values were obtained:
# Assay in all cases: glycan array binding signal (z-score within array); higher = stronger binding
# Conditions in all cases: glycan notation: IUPAC condensed, linker removed
# [1] = target: Man(b1-4)GlcNAc
# Method in brief: (§1)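 The binding signal is a Z-score computed within each array. Data were drawn from 3228 arrays in the Consortium for Functional Glycomics database, restricted to those with a known protein sequence. Scores were averaged over arrays of the same protein sequence at different concentrations or buffers, and over linkers, and negative values can be taken as non-binding.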
# [2] = target: MurNAc(b1-4)GlcNAc
# Method in brief: as §1
# [3] = target: Neu5Ac(a2-3)Gal
# Method in brief: as §1
# [4] = target: Neu5Ac(a2-3)Gal(b1-3)GalNAc
# Method in brief: as §1
# [5] = target: Neu5Ac(a2-3)Gal(b1-3)GalNAc(b1-3)Gal(a1-4)Gal(b1-4)Glc
# Method in brief: as §1
# [6] = target: Neu5Ac(a2-3)Gal(b1-3)GalNAc(b1-4)Gal(b1-4)Glc
# Method in brief: as §1
# [7] = target: Neu5Ac(a2-3)Gal(b1-3)GalNAc(b1-4)[Neu5Ac(a2-3)]Gal(b1-4)Glc
# Method in brief: as §1
# [8] = target: Neu5Ac(a2-3)Gal(b1-3)GalNAc(b1-4)[Neu5Ac(a2-8)Neu5Ac(a2-3)]Gal(b1-4)Glc
# Method in brief: as §1
# [9] = target: Neu5Ac(a2-3)Gal(b1-3)GalNAc6S
# Method in brief: as §1
# [10] = target: Neu5Ac(a2-3)Gal(b1-3)GlcNAc
# Method in brief: as §1
# [11] = target: Neu5Ac(a2-3)Gal(b1-3)GlcNAc(b1-2)Man
# Method in brief: as §1
# [12] = target: Neu5Ac(a2-3)Gal(b1-3)GlcNAc(b1-2)Man(a1-3)[GlcNAc(b1-4)][Neu5Ac(a2-3)Gal(b1-3)GlcNAc(b1-2)Man(a1-6)]Man(b1-4)GlcNAc(b1-4)GlcNAc
# Method in brief: as §1
# [13] = target: Neu5Ac(a2-3)Gal(b1-3)GlcNAc(b1-2)Man(a1-3)[Neu5Ac(a2-3)Gal(b1-3)GlcNAc(b1-2)Man(a1-6)]Man(b1-4)GlcNAc(b1-4)GlcNAc
# Method in brief: as §1
# [14] = target: Neu5Ac(a2-3)Gal(b1-3)GlcNAc(b1-2)[Neu5Ac(a2-3)Gal(b1-3)GlcNAc(b1-4)]Man(a1-6)[Neu5Ac(a2-3)Gal(b1-3)GlcNAc(b1-2)Man(a1-3)]Man(b1-4)GlcNAc(b1-4)GlcNAc
# Method in brief: as §1
# [15] = target: Neu5Ac(a2-3)Gal(b1-3)GlcNAc(b1-3)Gal(b1-3)GlcNAc
# Method in brief: as §1
# [16] = target: Neu5Ac(a2-3)Gal(b1-3)GlcNAc(b1-3)Gal(b1-4)GlcNAc
# Method in brief: as §1
# [17] = target: Neu5Ac(a2-3)Gal(b1-3)GlcNAc(b1-3)GalNAc
# Method in brief: as §1
# [18] = target: Neu5Ac(a2-3)Gal(b1-3)GlcNAc(b1-6)GalNAc
# Method in brief: as §1
# [19] = target: Neu5Ac(a2-3)Gal(b1-3)GlcNAc6S
# Method in brief: as §1
# [20] = target: Neu5Ac(a2-3)Gal(b1-3)[Fuc(a1-4)]GlcNAc
# Method in brief: as §1
# [21] = target: Neu5Ac(a2-3)Gal(b1-3)[Fuc(a1-4)]GlcNAc(b1-3)Gal(b1-3)[Fuc(a1-4)]GlcNAc
# Method in brief: as §1
# [22] = target: Neu5Ac(a2-3)Gal(b1-3)[Fuc(a1-4)]GlcNAc(b1-3)Gal(b1-4)[Fuc(a1-3)]GlcNAc
# Method in brief: as §1
binder,measurement,setting,value
Banana lectin (Musa acuminata) (protein) MNGAIKVGAWGGNGGSAFDMGPAYRIISVKIFSGDVVDGVDVTFTYYGKTETRHYGGSGGTPHEIVLQEGEYLVGMAGEVANYHGAVVLGKLGFSTNKKAYGPFGNTGGTPFSLPIAAGKISGFFGRGGKFLDAIGVYLEPLEHHHHHH,glycan array binding signal (z-score),[1],-0.607
same,glycan array binding signal (z-score),[2],-0.203
same,glycan array binding signal (z-score),[3],-0.214
same,glycan array binding signal (z-score),[4],0.034
same,glycan array binding signal (z-score),[5],-0.222
same,glycan array binding signal (z-score),[6],-0.209
same,glycan array binding signal (z-score),[7],-0.185
same,glycan array binding signal (z-score),[8],-0.236
same,glycan array binding signal (z-score),[9],-0.237
same,glycan array binding signal (z-score),[10],-0.202
same,glycan array binding signal (z-score),[11],-0.22
same,glycan array binding signal (z-score),[12],-0.157
same,glycan array binding signal (z-score),[13],-0.222
same,glycan array binding signal (z-score),[14],0.118
same,glycan array binding signal (z-score),[15],-0.202
same,glycan array binding signal (z-score),[16],-0.189
same,glycan array binding signal (z-score),[17],-0.218
same,glycan array binding signal (z-score),[18],-0.288
same,glycan array binding signal (z-score),[19],-0.222
same,glycan array binding signal (z-score),[20],-0.213
same,glycan array binding signal (z-score),[21],-0.179
same,glycan array binding signal (z-score),[22],-0.033
